Assay results reported in article PMC5719087.
These are yes or no findings as the source states them, for the method shown. Binding seen in cells or lysates may run through a third protein. Some binding calls cover weakened binding; strength is not graded here.

T1: AKINβ2 kinase subunit from Arabidopsis (Arabidopsis) (UniProt Q9SCY5)
T1 sequence: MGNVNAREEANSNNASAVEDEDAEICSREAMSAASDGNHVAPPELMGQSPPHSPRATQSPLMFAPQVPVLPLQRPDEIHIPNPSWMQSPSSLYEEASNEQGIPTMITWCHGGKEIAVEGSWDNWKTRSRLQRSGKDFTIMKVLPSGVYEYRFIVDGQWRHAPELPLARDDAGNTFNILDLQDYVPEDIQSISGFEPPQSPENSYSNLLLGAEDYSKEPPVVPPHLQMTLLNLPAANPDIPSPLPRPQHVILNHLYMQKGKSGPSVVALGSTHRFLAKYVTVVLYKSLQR

T2: Arabidopsis thaliana dehydrin AtRAB18 (Arabidopsis thaliana) (UniProt P30185)
T2 sequence: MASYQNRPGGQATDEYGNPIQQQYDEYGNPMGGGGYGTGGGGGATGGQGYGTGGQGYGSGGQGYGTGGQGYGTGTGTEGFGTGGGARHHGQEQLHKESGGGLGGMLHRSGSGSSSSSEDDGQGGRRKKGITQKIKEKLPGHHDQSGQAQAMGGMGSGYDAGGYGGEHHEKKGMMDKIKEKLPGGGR

T3: Arabidopsis thaliana dehydrin AtCOR47 (Arabidopsis thaliana) (UniProt P31168)
T3 sequence: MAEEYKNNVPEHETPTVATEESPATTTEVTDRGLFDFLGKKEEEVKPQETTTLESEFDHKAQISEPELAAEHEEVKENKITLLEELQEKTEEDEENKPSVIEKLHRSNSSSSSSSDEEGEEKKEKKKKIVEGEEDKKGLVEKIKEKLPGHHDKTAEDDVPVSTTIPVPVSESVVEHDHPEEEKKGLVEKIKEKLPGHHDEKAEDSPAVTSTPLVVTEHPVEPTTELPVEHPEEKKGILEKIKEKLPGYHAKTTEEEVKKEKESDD

T4: Arabidopsis thaliana dehydrin AtERD10 (Arabidopsis thaliana) (UniProt P42759)
T4 sequence: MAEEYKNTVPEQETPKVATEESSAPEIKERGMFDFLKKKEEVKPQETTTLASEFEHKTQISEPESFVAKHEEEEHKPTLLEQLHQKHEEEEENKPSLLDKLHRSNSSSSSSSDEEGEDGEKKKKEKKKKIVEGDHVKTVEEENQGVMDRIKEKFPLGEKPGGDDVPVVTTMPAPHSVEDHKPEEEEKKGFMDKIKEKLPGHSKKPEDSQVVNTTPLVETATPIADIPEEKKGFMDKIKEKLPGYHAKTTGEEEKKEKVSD


What was measured:
Assay in all cases: split reporter; BiFC with pYFN43 and pYFC43 fusions co-infiltrated (with p19) into N. benthamiana abaxial leaf cells by A. tumefaciens; confocal microscopy three days after infiltration
[1] = target: T1, AKINβ2 kinase subunit from Arabidopsis (Arabidopsis)
[2] = target: T2, Arabidopsis thaliana dehydrin AtRAB18 (Arabidopsis thaliana)
[3] = target: T3, Arabidopsis thaliana dehydrin AtCOR47 (Arabidopsis thaliana)
[4] = target: T4, Arabidopsis thaliana dehydrin AtERD10 (Arabidopsis thaliana)

Binder	binding [1]	binding [2]	binding [3]	binding [4]
AKIN10 kinase subunit from Arabidopsis (protein, UniProt Q38997 1-512) MDGSGTGSRSGVESILPNYKLGRTLGIGSFGRVKIAEHALTGHKVAIKILNRRKIKNMEMEEKVRREIKILRLFMHPHIIRLYEVIETPTDIYLVMEYVNSGELFDYIVEKGRLQEDEARNFFQQIISGVEYCHRNMVVHRDLKPENLLLDSKCNVKIADFGLSNIMRDGHFLKTSCGSPNYAAPEVISGKLYAGPEVDVWSCGVILYALLCGTLPFDDENIPNLFKKIKGGIYTLPSHLSPGARDLIPRMLVVDPMKRVTIPEIRQHPWFQAHLPRYLAVPPPDTVQQAKKIDEEILQEVINMGFDRNHLIESLRNRTQNDGTVTYYLILDNRFRASSGYLGAEFQETMEGTPRMHPAESVASPVSHRLPGLMEYQGVGLRSQYPVERKWALGLQSRAHPREIMTEVLKALQDLNVCWKKIGHYNMKCRWVPNSSADGMLSNSMHDNNYFGDESSIIENEAAVKSPNVVKFEIQLYKTRDDKYLLDLQRVQGPQFLFLDLCAAFLAQLRVL	binds	no binding	no binding	no binding
AKINβ2 kinase subunit from Arabidopsis (protein, UniProt Q9SCY5 1-289) MGNVNAREEANSNNASAVEDEDAEICSREAMSAASDGNHVAPPELMGQSPPHSPRATQSPLMFAPQVPVLPLQRPDEIHIPNPSWMQSPSSLYEEASNEQGIPTMITWCHGGKEIAVEGSWDNWKTRSRLQRSGKDFTIMKVLPSGVYEYRFIVDGQWRHAPELPLARDDAGNTFNILDLQDYVPEDIQSISGFEPPQSPENSYSNLLLGAEDYSKEPPVVPPHLQMTLLNLPAANPDIPSPLPRPQHVILNHLYMQKGKSGPSVVALGSTHRFLAKYVTVVLYKSLQR	–	no binding	no binding	no binding

The next lines start with the values.

binding [1]	binding [2]	binding [3]	binding [4]	Binder
–	binds	binds	binds	Arabidopsis thaliana dehydrin AtRAB18 (protein, UniProt P30185 1-186) MASYQNRPGGQATDEYGNPIQQQYDEYGNPMGGGGYGTGGGGGATGGQGYGTGGQGYGSGGQGYGTGGQGYGTGTGTEGFGTGGGARHHGQEQLHKESGGGLGGMLHRSGSGSSSSSEDDGQGGRRKKGITQKIKEKLPGHHDQSGQAQAMGGMGSGYDAGGYGGEHHEKKGMMDKIKEKLPGGGR
–	binds	binds	binds	Arabidopsis thaliana dehydrin AtCOR47 (protein, UniProt P31168 1-265) MAEEYKNNVPEHETPTVATEESPATTTEVTDRGLFDFLGKKEEEVKPQETTTLESEFDHKAQISEPELAAEHEEVKENKITLLEELQEKTEEDEENKPSVIEKLHRSNSSSSSSSDEEGEEKKEKKKKIVEGEEDKKGLVEKIKEKLPGHHDKTAEDDVPVSTTIPVPVSESVVEHDHPEEEKKGLVEKIKEKLPGHHDEKAEDSPAVTSTPLVVTEHPVEPTTELPVEHPEEKKGILEKIKEKLPGYHAKTTEEEVKKEKESDD
–	binds	binds	binds	Arabidopsis thaliana dehydrin AtERD10 (protein, UniProt P42759 1-260) MAEEYKNTVPEQETPKVATEESSAPEIKERGMFDFLKKKEEVKPQETTTLASEFEHKTQISEPESFVAKHEEEEHKPTLLEQLHQKHEEEEENKPSLLDKLHRSNSSSSSSSDEEGEDGEKKKKEKKKKIVEGDHVKTVEEENQGVMDRIKEKFPLGEKPGGDDVPVVTTMPAPHSVEDHKPEEEEKKGFMDKIKEKLPGHSKKPEDSQVVNTTPLVETATPIADIPEEKKGFMDKIKEKLPGYHAKTTGEEEKKEKVSD
